The supplement of paper PMC3334620
Whole data set: some 33,000 sequences, median “E-score (-0.5 to 0.5)” near -0.021, cut for the highest 2% near 0.32. The list shows a part of the results.

Target: T1, Zap1 (UniProt P47043)
T1 sequence: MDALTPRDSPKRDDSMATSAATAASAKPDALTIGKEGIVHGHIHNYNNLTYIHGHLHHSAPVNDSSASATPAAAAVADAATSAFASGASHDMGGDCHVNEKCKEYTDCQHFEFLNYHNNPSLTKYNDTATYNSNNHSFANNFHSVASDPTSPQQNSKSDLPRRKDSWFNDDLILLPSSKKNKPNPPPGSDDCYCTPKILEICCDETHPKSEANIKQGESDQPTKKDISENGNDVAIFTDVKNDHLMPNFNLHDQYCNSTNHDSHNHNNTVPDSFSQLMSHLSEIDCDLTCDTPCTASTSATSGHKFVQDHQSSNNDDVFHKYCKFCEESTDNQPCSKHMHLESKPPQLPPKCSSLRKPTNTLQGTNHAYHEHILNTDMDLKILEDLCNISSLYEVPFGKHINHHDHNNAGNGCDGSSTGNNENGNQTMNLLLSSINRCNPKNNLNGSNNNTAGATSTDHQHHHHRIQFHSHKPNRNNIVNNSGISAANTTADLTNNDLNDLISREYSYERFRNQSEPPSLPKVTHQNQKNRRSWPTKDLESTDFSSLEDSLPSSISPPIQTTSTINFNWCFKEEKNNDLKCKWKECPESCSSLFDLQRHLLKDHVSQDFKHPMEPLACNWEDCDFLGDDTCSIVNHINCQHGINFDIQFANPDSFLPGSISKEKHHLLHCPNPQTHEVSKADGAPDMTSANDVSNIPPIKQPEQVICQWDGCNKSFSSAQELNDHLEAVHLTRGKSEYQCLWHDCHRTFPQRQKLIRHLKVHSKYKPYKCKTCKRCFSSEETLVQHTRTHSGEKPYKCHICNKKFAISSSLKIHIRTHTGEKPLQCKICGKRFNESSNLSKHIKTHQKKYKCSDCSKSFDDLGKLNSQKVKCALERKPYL
Experiment: PBM E-score (8-mer binding enrichment) (E-score (-0.5 to 0.5)); higher = stronger / more preferred TF binding; most listed sequences are background and not binding sites
Settings: protein concentration: 200 nM; construct: GST-full length
How it was run: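 Universal all-10-mer Agilent arrays, double-stranded by primer extension on fresh or once-stripped slides, were probed with about 100-200 nM GST-tagged yeast transcription factors made by PURExpress. Fluorescent anti-GST detected bound protein, and masliner normalised the scans. E-scores from the Universal PBM Analysis Suite were given to each ungapped eight-base word pooled with its reverse complement.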

Sequence | PBM E-score
CGTCCCAC | -0.131
AATCGTAG | -0.0487
GAGTTGCA | -0.0948
CTCGAATA | -0.0835
AAAGAATT | -0.0372
ATGCACCG | -0.13
CCGCACAA | -0.0646
CAAAGAGG | 0.0514
GATTCATA | -0.205
AATCGACT | -0.176
CTAGGAGC | -0.256
CAATAGCC | -0.147
ACGTGACT | -0.347
CCTCGCTC | 0.0142
TGGTTCAA | 0.104
CCTAGCAA | 0.0808
GACACGAC | 0.0622
AAGATGAT | -0.0471
AATGACTA | -0.136
CGACCGCA | 0.0929
ATGTGGGG | -0.15
AGCTGTAG | -0.0501
ACATTGGT | 0.0872
GCCCCCAA | -0.197
GGTAGAAC | -0.131

Sequence | PBM E-score
ACTATAAG | 0.0772
GAGGTGGC | -0.0769
TGGATTAA | 0.0758
CTCCCGTA | -0.194
AGCCGAAA | 0.0407
GGCTTGCA | -0.129
CGCTGACA | -0.0531
AATTTACC | 0.128
GTGCTAAC | 0.0634
CCACAATC | 0.0641
ATCATATA | 0.125
CTCCTATA | -0.187
CGTGCCTC | -0.129
GCACTTAC | -0.193
TAAGGACA | 0.106
GAACTGAA | 0.0377
AGTCCGGC | -0.184
ACATAGAG | -0.0301
ACGTCTGA | -0.132
CAGGAAGA | -0.192
CTGACACC | 0.0297
ACAATGCT | -0.223
ACGGACCA | 0.124
CTATAAGA | -0.158
ACCACCAG | 0.175

Sequence | PBM E-score
GCCCTTAC | -0.15
ACTCGAGA | -0.0581
CAGGGGCC | 0.148
GCGGGCAC | -0.0378
CTCCTCAG | -0.119
GTCATCGA | -0.0929
TCCGTCGA | -0.173
CTTCCAGC | -0.294
TCGAAACA | 0.0165
GGCGCGCA | 0.00676
TCCTGCGA | -0.0548
ATGCTTTA | -0.158
CGGAGGTA | 0.144
AGAGGTCG | 0.304
AGCTTTTC | -0.151
CTCGAGTA | 0.111
CTTGTAAC | 0.215
AGGTTACG | 0.459
CCGCAGTA | 0.0709
GTAAGCAA | -0.00929
ACATTAGT | -0.0193
AATACTTA | 0.0505
TACGAGGA | 0.119
CTTTTGGC | 0.121
AATGCAAC | 0.122

Sequence | PBM E-score
ATACTTAA | 0.175
TAATTCGA | 0.132
ATTTCAGC | -0.1
CTGACATC | -0.0898
CAGTTTAA | 0.00566
ACCTGGGA | -0.0403
CTGCCATC | -0.274
AAGTGGTC | 0.2
GAGGTACC | 0.432
ACCCGCTA | 0.211
ATTCTGTA | -0.0359
AGAAGTAA | 0.135
CGACACCC | 0.188
CGCATCTA | 0.0411
CATGTCCC | 0.0076
AAATTATG | 0.0908
CCGTTAAG | 0.14
TGCAATAA | 0.31
GATCAGCC | -0.265
AACGTGAC | -0.0506
CGGATTGA | -0.107
CGGTAGAA | -0.257
ATTGACGG | -0.0196
AGTTTGGG | 0.131
AGCGGATC | -0.172

Sequence | PBM E-score
AATGATGC | -0.0857
AGCAAAAC | 0.0587
AATCAGTG | 0.00466
CAGGTAAA | 0.133
CACACCGA | 0.0911
GGTTGACA | -0.052
ACATAACT | 0.149
CATGCGAG | -0.214
AGAAAATG | 0.0201
AAGAAAGG | 0.0397
AGCTTCAG | -0.165
GCTGAGCC | -0.23
ACAGGGAT | -0.0641
ATCGAAGC | -0.248
ACCAACCA | 0.17
CGTCGTTC | -0.166
CAGGGACC | -0.141
AGCCCCAT | -0.0517
CCATGGGA | 0.0786
CCTGGGTA | 0.197
CATGAGAA | 0.133
CTTCCGTC | -0.0683
CCGGGGCA | -0.255
AAAACCCT | 0.362
CCATTCAC | 0.0919

Sequence | PBM E-score
CCATCTAG | -0.0205
CGTTTACA | -0.0671
GATACTGA | -0.017
GCTGCTAC | -0.183
GGGCCGAC | -0.0668
CCCATTAC | 0.13
ACTCGGCG | -0.258
CTTGCTAA | -0.0487
ACCGTATG | -0.00664
AGTGAAGG | -0.0963
ACCAAGAT | 0.126
CCACCAAA | 0.133
AATGTGGA | -0.175
CATTCAGG | -0.11
ACAGGCAA | -0.118
GACGGGTA | 0.0159
CATAGGGC | -0.0199
ATATGATC | 0.128
AGAGCGGC | -0.0814
ATTGCCAA | -0.0916
GTGAAGCA | -0.181
GCCAAAGA | -0.126
CGGTGTGA | 0.0819
GAATGCGC | -0.262
ATGACTAA | -0.144

Sequence | PBM E-score
CCTGGGGA | -0.183
ACCGATGC | -0.0856
CAAGAGCG | -0.133
GTAGACAC | -0.0245
TCAAACCA | 0.201
CACTCTAC | 0.177
ACCAGCAG | -0.089
ACATTCAT | -0.131
AGCCAGGA | -0.272
CGGTGGTC | 0.205
ATCGGGCA | -0.199
GGCTCACC | -0.292
TGCAACAA | 0.151
GCGGAGCC | -0.0954
GTATTAGA | 0.196
ATAAGATG | 0.0619
CATATGTC | -0.234
CATGCTAG | -0.191
ATACCACC | 0.183
CTCTATCC | -0.129
GGTTCTAC | -0.046
CTTGCTCC | -0.161
